Our source for the survival values is PubChem BioAssay AID463173 (ICCB-Longwood Screening Facility, Harvard Medical School, 2010).

The whole screen tested about 52,000 compounds, of which about 1,700 (3.3%) were called active. No stated cut-off is given here; in the data, active means survival mostly below about 52% (no sharp cut-off); inactive means mostly above about 56%. Some of the results follow.

The test system of this assay is Wild type. Put plainly: growth inhibition of S. aureus wild type versus tarO mutant, primary screen, teichoic acid synthesis inhibitors, RN4220, OD600 (AID 463173). The following applies: S. aureus RN4220 wild type/DeltatarO growth, OD600, 18 h, active compounds read low, screened at 18.75 µg/mL (by protocol).
For `O=C(COc1ccc(F)cc1)Nc1ccccc1C(=O)OCc1cc(=O)n2ccsc2n1`, the survival was inactive: 90%.

For the molecule `COc1cc(NC(=O)C2=CC(c3ccco3)=NS(=O)(=O)N2C)cc(OC)c1OC`, the survival is inactive: 97%. Under `NC(=O)c1ccccc1NC(=O)CN1c2ccccc2S(=O)(=O)c2ccccc21` stands inactive: 83%. For the molecule `CCOC(=O)c1c(C)oc2c1c(O)c(N=O)c1ccccc12`, the survival was active: 7%. Take `Cc1nc(-c2ccccc2)sc1CCNC(=O)C(=O)Nc1ccc(F)c(Cl)c1`: the survival was active: 1%. For `COc1cc(Cl)c(C)cc1NC(=O)Cn1c2ncccc2c(=O)n1-c1ccccc1`, the survival is inactive: 65%. As for `CCc1ccc(-n2nnc(-c3nc(-c4ccc(C)cc4)no3)c2N)cc1`, the figure is inactive: 97%.

Take `COc1cccc(N2CCN(C(=O)Cn3nc(C)n4c(cc5c(OC)cccc54)c3=O)CC2)c1`: the survival is inactive: 80%. As for `COC(=O)c1c(NC(=O)COc2ccc(Cl)cc2)sc(C)c1C`, the figure is inactive: 73%. Turning to `O=C1c2cccc3cccc(c23)C(=O)N1c1ccncc1`, the survival is inactive: 109%. As for `COCc1cc(C)nc2c1C(=O)NC(c1ccc(Br)cc1)N2Cc1ccccc1` (stereo not drawn), the figure is inactive: 93%. Under `CCc1ccc(NC(=O)C(=O)NCC(c2cccnc2)N2CCc3ccccc3C2)cc1` (stereo not drawn) stands inactive: 76%; under `COc1nnc(-c2ccc(N3CCCCC3)c(NC(=O)c3ccccc3Cl)c2)c2ccccc12`, active: -7%. As for `O=C(Nc1sc2c(c1C(=O)NCc1ccccc1)CCCC2)c1cc(=O)c2ccccc2o1`, the figure is inactive: 83%; as for `COc1ccc(Cl)cc1C(=O)NCc1nnnn1-c1ccccc1`, inactive: 121%. With `O=C(OC(C(=O)NCc1cccs1)c1ccccc1Cl)c1ccco1` (stereo not drawn), the survival is inactive: 108%. As for `O=C(NCc1ccc(Cl)cc1)C1CCN(c2ncnc3c2nc2n3CCCCC2)CC1`, the figure is inactive: 55%. As for `CCOc1ccccc1C(=O)NCC(c1cccs1)S(=O)(=O)c1ccc(F)c(C)c1` (stereo not drawn), the figure is inactive: 74%; as for `CCc1ccc(NC(=O)CSc2nc3c(c(=O)[nH]2)CN(Cc2ccc(C)cc2)CC3)cc1`, inactive: 108%; as for `COc1cccc(-c2nc(SCC(=O)NCc3ccco3)c3c(=O)n(C)c(=O)n(C)c3n2)c1`, inactive: 72%. As for `CC1CCN(C(=O)Cn2cc(SCC(=O)Nc3ccccc3)c3ccccc32)CC1`, the figure is inactive: 95%. Take `CCOC(=O)c1noc2ncnc(N3CCN(c4cccc(C(F)(F)F)c4)CC3)c12`: the survival was inactive: 105%. Turning to `COc1ccc(-c2cc(C)no2)cc1S(=O)(=O)NCc1ccco1`, the survival is inactive: 127%.

In the case of `CCN(CC)S(=O)(=O)c1ccc2c(c1)c(=O)c(C(=O)NCc1ccccc1Cl)cn2C`, the survival is inactive: 73%. Under `O=C(CSc1c2c(nc3cc(Cl)ccc13)CCCC2)N1CCN(c2ccccc2)CC1` stands inactive: 44%; under `NS(=O)(=O)c1ccc(S(=O)(=O)N(Cc2ccccc2F)CC2CCCO2)cc1` (stereo not drawn), inactive: 107%; under `CCOC(=O)c1c(-c2ccc(C)cc2)csc1NC(=O)c1cc(=O)c2cc(C)cc(C)c2o1`, inactive: 114%. Under `COc1ccc(-n2c(SCc3ccccc3F)nc3c([nH]c4ccccc43)c2=O)cc1OC` stands inactive: 54%. Consider `COc1cc(NC(=O)c2c3c(nc4ccccc24)C(=O)N(C2CCCCC2)C3)cc(OC)c1`, for which the survival was inactive: 121%.

With `CCOc1ccc(-c2nonc2NC(=O)c2oc3ccc(C)cc3c2C)cc1OCC`, the survival was inactive: 89%.

In the case of `Cc1ccc(S(=O)(=O)Cc2nc(-c3ccc(C(=O)NCc4ccccc4C)cc3)oc2C)cc1`, the survival was inactive: 73%. As for `COc1ccc(Cn2ccn(Cc3cccc(Cl)c3)c(=O)c2=O)cc1`, the figure is inactive: 111%. Under `CC(=O)c1ccc(NC(=O)C2=CC(c3ccc(C)cc3)=NS(=O)(=O)N2C)cc1` stands inactive: 82%. Under `CCCn1cc(S(=O)(=O)c2ccc(OC)cc2)c(=O)c2cc(F)c(N3CCCC(C)C3)cc21` (stereo not drawn) stands inactive: 71%; under `Cc1ccc(C(=O)Nc2nc3nc(-c4ccccc4)cc(=O)n3[nH]2)cc1`, inactive: 131%.

As for `O=C(COc1ccccc1F)Nc1c(C(=O)Nc2cccc(F)c2)oc2ccccc12`, the survival was inactive: 88%. As for `O=C(Nc1cc(-c2ccccc2F)nn1-c1ccccc1)c1ccccc1Br`, the figure is inactive: 72%; as for `CCCCCOC(=O)CSc1nc2sc3c(c2c(=O)n1-c1ccccc1)CC(C)(CC)OC3` (stereo not drawn), inactive: 48%.

Take `O=C(CSc1nc2c(oc3ccccc32)c(=O)n1Cc1ccco1)Nc1ccccc1`: the survival was inactive: 133%. Under `Cc1ccc(CNC(=O)CCS(=O)(=O)c2cc3c(cc2C)NC(=O)CO3)cc1` stands inactive: 87%. Consider `O=C(O)CC1S/C(=N/N=C2CCCC2)NC1=O` (stereo not drawn), for which the survival was inactive: 102%.

Turning to `Cc1cccc(CSc2nc(-c3cccc(C)c3)nc3c2Cc2c(CO)cnc(C)c2O3)c1`, the survival was inactive: 87%. As for `Cc1ccc(CN2CCCN(Cc3c(C)cc(C)cc3C)S2(=O)=O)cc1`, the figure is inactive: 63%.

On to `CCCSC1=NC2(CCN(C(=O)NC3CCCCC3)CC2)N=C1c1ccc(Cl)cc1`, for which the survival was inactive: 58%. For the molecule `COC(=O)CC(=O)CSc1nc(C)cc(C)c1C#N`, the survival was inactive: 91%. Regarding `COc1ccc(C)cc1NC(=O)COCc1cc(-c2ccc(F)cc2)on1`, the survival was inactive: 79%. Consider `CC(C)(C)C(=O)OCc1cc(=O)n2nc(C3CC3)sc2n1`, for which the survival was inactive: 89%. `CCCN(CCC)c1nn2c(=O)c(C(=O)NCc3cc(Br)ccc3OC)cnc2s1`: the survival is inactive: 82%. As to `CCOC(=O)c1cc(-c2ccccc2)n(CC(=O)Nc2ccc(CC)cc2)c1C`, the survival is inactive: 95%. As for `COc1cc(Cl)c(C)cc1NC(=O)Cn1cc(S(=O)(=O)N2CCC(C)CC2)c2ccccc2c1=O`, the figure is inactive: 128%; as for `Cc1nn(Cc2noc(C(=O)NC(C)c3ccccc3)n2)c(C)c1Br` (stereo not drawn), inactive: 72%. As for `Cc1ccc(N2CCN(S(=O)(=O)c3c(C)[nH]c(=O)[nH]c3=O)CC2C)cc1` (stereo not drawn), the figure is inactive: 78%. Under `COc1ccc(OC)c(CCNC(=O)CCn2c(=O)c3cccn3c3ccc(F)cc32)c1` stands inactive: 87%; under `Cc1cccc(S(=O)(=O)c2cn(C)c3cc(N4CCN(c5ccc(F)cc5)CC4)c(F)cc3c2=O)c1`, inactive: 82%; under `CC(C)c1ccc(NC(=O)CSC2=Nc3ccccc3C3=NC(CCC(=O)NCc4ccco4)C(=O)N23)cc1` (stereo not drawn), inactive: 77%. As for `CCCCNC(=O)c1ccccc1NC(=O)CN(c1ccccc1)S(=O)(=O)N(C)C`, the survival is inactive: 91%. Under `CCN(CC)c1ccc(NC(=O)CNCC2CCCCC2)c(C)c1` stands inactive: 103%; under `O=C(CSc1nc(=O)n(Cc2ccco2)c2c1CCC2)Nc1ccccc1C(F)(F)F`, inactive: 138%; under `Cc1ccc2c(=O)cc(C(=O)Nc3ccc(S(=O)(=O)N4CCCCCC4)cc3)oc2c1`, inactive: 106%. As for `CCN(Cc1ccccc1)C(=O)Cn1c(=O)n(-c2ccc(Cl)cc2)c(=O)c2c(C)c(C)sc21`, the figure is inactive: 92%. As for `Cc1ccc(Cl)cc1N1CCN(C(=O)c2cc(S(=O)(=O)N3CCCC3)c[nH]2)CC1`, the figure is inactive: 77%; as for `CCc1ccc(NC(=O)C2CCCN(S(=O)(=O)c3ccc(F)cc3)C2)cc1` (stereo not drawn), inactive: 75%; as for `CCOC(=O)CNC(c1ccccc1)c1cc(Br)ccc1NC(=O)c1cccc(Cl)c1` (stereo not drawn), inactive: 66%. For `CCc1nnc(SCC(=O)N(CC)c2ccccc2)c2cc3oc(C)cc3n12`, the survival was inactive: 86%. As for `CC(=O)N1CCCc2cc(S(=O)(=O)N3CCC(C(=O)NCc4ccccc4)CC3)ccc21`, the figure is inactive: 68%; as for `Cc1ccc(CN2CCSc3ccc(C(=O)Nc4ccc(C)cc4)cc32)cc1`, inactive: 124%. As to `CCOc1ccc(OCC)c(NC(=O)c2cnc(SC)nc2-c2ccccc2)c1`, the survival was active: 0%.

`Cc1ccc(C)c(NC(=O)CSc2nc3c([nH]c4ccccc43)c(=O)n2-c2ccc(F)cc2)c1`: the survival is active: 0%. Under `COc1ccc(S(=O)(=O)NCCNc2nc3cc(C)cc(C)c3cc2C#N)cc1` stands inactive: 102%; under `Cc1ccc(Cn2c(=O)n(Cc3ccco3)c(=O)c3oc4ccccc4c32)cc1`, inactive: 123%; under `Cc1ccc(C)c(Cn2c(=O)n(-c3ccc(Cl)cc3)c(=O)c3c(C)c(C)sc32)c1`, inactive: 73%. Under `COc1ccc(CC(=O)NCC(c2ccc(Cl)cc2)N2CCOCC2)cc1` (stereo not drawn) stands inactive: 76%; under `Cc1ccc(S(=O)(=O)c2nnn3c2nc(NC2CCCCC2)c2sccc23)cc1`, inactive: 105%. Turning to `CN(C)S(=O)(=O)c1ccc2c(c1)nnn2CCNC(=O)Nc1ccc(Cl)cc1`, the survival is inactive: 55%. Consider `Cc1ccc(C)c(Oc2nc3c(c(=O)n(C)c(=O)n3C)n2Cc2ccccc2)c1`, for which the survival is inactive: 73%. As for `Cc1ccc(Cc2cn3cc(-c4ccccc4)nc3s2)cc1`, the figure is inactive: 94%; as for `CCOc1ccc(NC(=O)NCCCN2CCN(c3ccc(OC)cc3)CC2)cc1`, inactive: 87%; as for `O=C(c1ccc(CSc2nc3ccncc3n2Cc2ccccc2F)cc1)N1CCCCC1`, inactive: 83%.

Turning to `Cc1c(CCC(=O)NCCc2ccccc2F)c(=O)oc2cc(O)ccc12`, the survival was inactive: 81%. Under `CCC(C)NS(=O)(=O)c1ccc(S(=O)(=O)N(Cc2ccc(C)o2)C2CCCC2)cc1` (stereo not drawn) stands inactive: 135%. Under `CCOc1ccccc1Nc1sc(C(=O)c2ccc(Cl)cc2)c(N)c1C#N` stands inactive: 73%.

As to `CN(C)c1ccc(/C=C(\C#N)c2nc3ccccc3c(=O)[nH]2)cc1`, the survival is inactive: 97%. Under `O=C(NCc1ccc(F)cc1)c1cccc(N2CCCS2(=O)=O)c1` stands inactive: 74%.

Take `O=C(NCCc1ccccc1)c1cc(-c2ccccc2)nc2n[nH]c(-c3ccccc3)c12`: the survival was inactive: 56%.

On to `Cc1ccccc1NC(=O)Cn1c(=O)n(Cc2ccco2)c(=O)c2cccnc21`, for which the survival is inactive: 76%.

Turning to `Cc1ccc(-c2cc(C(=O)NCCc3ccccc3)c3ccccc3n2)cc1C`, the survival is inactive: 78%. As to `C=CCn1c(C#N)c(N)sc1=N`, the survival was inactive: 106%. As for `CCc1ccc2c(c1)c(=O)c(C(=O)c1ccc(C)cc1)cn2CC(=O)Nc1ccc2c(c1)OCCO2`, the figure is inactive: 83%.
